# Measured values published in paper PMC4336329 (PLoS ONE, 2015).
# The campaign covered roughly 310,000 compounds. About 14,000 (4.5%) showed an effect of 50% or more. Effects have a minus sign here. The list shows a part of the results.
# Molecular target: human ether-à-go-go-related gene (hERG) potassium channel (human, UniProt Q12809)
# Experiment: primary screen, population patch clamp on CHO cells stably expressing hERG
# 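Also: peak tail current of the secondary pulse compared with the same well before compound.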
# Chain of human ether-à-go-go-related gene (hERG) potassium channel (Q12809 whole entry, looked up): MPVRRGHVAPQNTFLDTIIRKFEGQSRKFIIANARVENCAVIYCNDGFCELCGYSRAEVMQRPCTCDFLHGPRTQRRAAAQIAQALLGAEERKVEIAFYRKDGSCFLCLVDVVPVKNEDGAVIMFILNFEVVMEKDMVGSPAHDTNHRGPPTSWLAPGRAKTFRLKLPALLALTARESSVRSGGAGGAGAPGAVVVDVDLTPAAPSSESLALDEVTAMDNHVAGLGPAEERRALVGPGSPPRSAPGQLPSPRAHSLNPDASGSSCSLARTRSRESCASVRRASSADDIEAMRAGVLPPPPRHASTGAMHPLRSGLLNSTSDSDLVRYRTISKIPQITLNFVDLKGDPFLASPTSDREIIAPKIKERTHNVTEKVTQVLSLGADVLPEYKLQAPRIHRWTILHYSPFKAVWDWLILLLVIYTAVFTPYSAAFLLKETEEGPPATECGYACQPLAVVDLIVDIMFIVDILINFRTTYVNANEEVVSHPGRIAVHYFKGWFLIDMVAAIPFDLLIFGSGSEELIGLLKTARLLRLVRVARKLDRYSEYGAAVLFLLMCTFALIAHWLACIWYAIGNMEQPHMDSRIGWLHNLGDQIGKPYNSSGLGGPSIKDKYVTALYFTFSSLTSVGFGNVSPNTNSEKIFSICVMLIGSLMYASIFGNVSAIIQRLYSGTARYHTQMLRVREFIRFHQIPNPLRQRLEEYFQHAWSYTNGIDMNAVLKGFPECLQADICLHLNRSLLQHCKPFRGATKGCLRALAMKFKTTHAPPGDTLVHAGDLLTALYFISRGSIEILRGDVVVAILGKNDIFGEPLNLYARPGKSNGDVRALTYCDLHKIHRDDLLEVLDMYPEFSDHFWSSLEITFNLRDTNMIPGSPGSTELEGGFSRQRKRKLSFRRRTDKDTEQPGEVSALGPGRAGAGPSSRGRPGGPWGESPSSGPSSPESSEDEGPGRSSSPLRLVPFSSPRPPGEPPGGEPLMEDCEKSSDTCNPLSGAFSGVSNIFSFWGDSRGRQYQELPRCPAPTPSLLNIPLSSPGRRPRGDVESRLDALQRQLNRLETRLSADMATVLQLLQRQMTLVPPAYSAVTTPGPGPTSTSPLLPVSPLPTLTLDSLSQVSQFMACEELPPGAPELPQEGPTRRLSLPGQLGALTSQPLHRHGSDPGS
row,Structure (SMILES),"hERG current change (%, negative = inhibition) at 10uM [%]"
1,O=C(Nc1ccccc1C(=O)Nc1ccccn1)c1ccccc1F,6.58
2,CCC1CCCCN1Cc1c(O)ccc2c(=O)c(-c3ccccc3OC)coc12 (stereo not shown),1.72
3,COc1cc(/C=N/NC(N)=O)cc(Br)c1OCc1ccccc1C,7.11
4,Cc1ccc(NC(=O)C2CCCN(S(=O)(=O)c3c(C)noc3C)C2)c(Br)c1 (stereo not shown),13.2
5,CCN1CCN(c2nc3c(c(=O)n(C)c(=O)n3C)n2CCSc2nccc(C)n2)CC1,1.66
6,NC(=S)NNC(=O)c1cccc(Br)c1,6.23
7,C=CCn1c(O)c(C=Nc2ccc(F)cc2)c(=O)[nH]c1=O,4.49
8,COc1cc(C(=O)Nc2ccc(-c3nnc(-c4ccco4)o3)cc2)cc(OC)c1OC,-3.23
9,CCOC(=O)C(NC(C)=O)(Nc1ccc(F)cc1)C(F)(F)F (stereo not shown),-3.72
10,CCOC(=O)C1=C(C)N[C@@]2(O)c3ccccc3C(=O)[C@@]12O,4.84
11,Cc1csc(SCC(=O)NC(=O)NC(C)C)n1,10.2
12,Cc1ccc(NC(=O)C(C)S)cc1 (stereo not shown),13.6
13,O=C(Nc1ccc2nc(-c3cccs3)c(-c3cccs3)nc2c1)N1CCOCC1,5.35
14,COc1cc(NC(=O)CSc2nc3ncnc(N)c3[nH]2)c(C(=O)O)cc1OC,18.3
15,CCOP(=O)(OCC)C(O)c1ccc(Br)cc1 (stereo not shown),13.3
16,CCOC(=O)C1CCN(S(=O)(=O)c2ccc3c(c2)CC(C)N3C(=O)C2CCC2)CC1 (stereo not shown),-21.4
17,COc1cc2c(cc1OC)C(c1ccccc1O)NCC2 (stereo not shown),12.6
18,Cc1ccc(NC(=O)c2ccnc(C(C)(C)C)c2)cc1,-9.29
19,NNc1nc2ccccc2c(=O)n1Cc1ccccc1,20.4
20,Cc1ccc(C(C(=O)NCc2ccco2)N(C(=O)CNC(=O)c2cccs2)c2c(C)cc(C)cc2C)cc1 (stereo not shown),-9.79
21,CCOC(=O)c1oc2ccc(S(=O)(=O)N3CCOCC3)cc2c1C,-1.64
22,O=C(Cc1nc(-c2ccc([N+](=O)[O-])cc2)cs1)Nc1ccccc1,-7.08
23,Cc1ccc(OCC(=O)N/N=C/c2cc([N+](=O)[O-])ccc2N2CCCCC2)cc1,-13.8

row,Structure (SMILES),"hERG current change (%, negative = inhibition) at 10uM [%]"
1,N#CCC(=O)Nc1ccc(C(=O)OCC(=O)NNC(=O)c2cccs2)cc1,-34.9
2,Cc1cc(SCC(=O)OCC(=O)NC(C)c2ccccc2)c(C)cc1Br (stereo not shown),22.7
3,CCN(c1ccccc1)S(=O)(=O)c1ccc(Cl)c(NC(=O)COC(=O)c2ccc[n+]([O-])c2)c1,-29.9
4,Cc1c(Cl)cccc1NC(=O)CCCn1nc([N+](=O)[O-])cc1C,3.57
5,CSC1=NC(C)N2C(SC)=NC(C)N12 (stereo not shown),18.9
6,COCCn1c(SCC(=O)NCc2ccc3c(c2)OCO3)nnc1-c1c[nH]c2ccccc12,-12.2
7,CNS(=O)(=O)c1cccc(C(=O)OCc2cc(Cl)cc3c2OCOC3)c1,-17
8,COc1ccc(C(=O)CC(=O)C(=O)Nc2cc(C)ccc2C)cc1,5.68
9,COCc1c(C(=O)N/N=C(/C)c2cccs2)nnn1-c1nonc1N,21.4
10,CC(C1CC1)N(C(=O)c1ccccc1O)c1ccccc1 (stereo not shown),9.8
11,COc1ccc(NC(=S)NNC(=O)c2cccnc2)cc1OC,18.3
12,Cn1cc(C(=O)c2ccccc2)cc1-c1nc2ccccc2n1C,-41.9
13,Cc1cn(C(=O)c2ccccc2)c(=S)n1-c1ccc(Br)cc1,17.5
14,Cc1nc(CN2CCN(Cc3nc(C(c4ccccc4)c4ccccc4)no3)CC2)cs1,-45.5
15,O=C(N/N=C/c1ccccc1F)NC12CC3CC(CC(C3)C1)C2,14.1
16,CCOc1ccc(NS(=O)(=O)c2ccc(NS(C)(=O)=O)cc2)cc1,-18.9
17,COC(=O)CCC(=O)Nc1ccc(NC(=O)CCC(=O)OC)cc1,-8.55
18,NC(=S)NN=C(c1ccccc1)c1ccccc1,-21.6
19,Cc1ccc(NC(=O)C2=CC(c3ccc(C)cc3)=NS(=O)(=O)N2C)cc1,-22.2
20,CN(C)S(=O)(=O)c1ccc(Cl)c(NC(=O)CN2CCC(Cc3ccccc3)CC2)c1,13.9
21,CC(C)CNC(=O)c1cccc(NC(=O)c2ccc(NC(=O)c3ccco3)cc2)c1,-43.1
22,COc1ccccc1CNS(=O)(=O)c1cccc(S(=O)(=O)N2CCOCC2)c1,-12.1
23,CCCCCCOc1ccc(OC(=O)c2cccnc2)cc1,17
